Test results taken from PubChem BioAssay (Tox21).
Several values for one entry are separate records, joined by “and”; a condition that tells them apart may be missing. Equal values may be shown once. The inconclusive results got no clear call from the source; some entries with a clear call stand among them for comparison. For some of these results: A potency beside an inconclusive call is a rough fit, not a confirmed value. Activity calls are given as the source filed them. Unless noted, the call rests on the fitted dose curve; in most records, active means well fitted curve in the direction sought with a large enough effect in the repeat runs; inconclusive means weak or mixed curves; inactive means no such curve, though single readings can be large; an effect the other way counts as inactive or inconclusive.

Key:
[1] = target: Estrogen receptor (Homo sapiens) (UniProt P03372); assay: qHTS assay to identify small molecule antagonists of the estrogen receptor alpha (ER-alpha) signaling pathway (AID 743069; active means well fitted curve in the direction sought with a large enough effect in the signal ratio in the repeat runs, not every such curve was filed as active; inconclusive means weak or mixed curves, or effect the other way; inactive means no such curve, though single readings can be large or run the other way; the % refers to the signal ratio; further: potency means the concentration at half of the fitted maximal effect; on activity, negative = inhibition: on the % scale 0 is the no-effect control and ±100 the full control effect); conditions: HEK293 ER-alpha-UAS-bla, beta-lactamase ratio, antagonist mode; activity, negative = inhibition: at 69.4 µM (top of the series) unless noted
Sequence of UniProt P03372 (P03372 whole entry, looked up): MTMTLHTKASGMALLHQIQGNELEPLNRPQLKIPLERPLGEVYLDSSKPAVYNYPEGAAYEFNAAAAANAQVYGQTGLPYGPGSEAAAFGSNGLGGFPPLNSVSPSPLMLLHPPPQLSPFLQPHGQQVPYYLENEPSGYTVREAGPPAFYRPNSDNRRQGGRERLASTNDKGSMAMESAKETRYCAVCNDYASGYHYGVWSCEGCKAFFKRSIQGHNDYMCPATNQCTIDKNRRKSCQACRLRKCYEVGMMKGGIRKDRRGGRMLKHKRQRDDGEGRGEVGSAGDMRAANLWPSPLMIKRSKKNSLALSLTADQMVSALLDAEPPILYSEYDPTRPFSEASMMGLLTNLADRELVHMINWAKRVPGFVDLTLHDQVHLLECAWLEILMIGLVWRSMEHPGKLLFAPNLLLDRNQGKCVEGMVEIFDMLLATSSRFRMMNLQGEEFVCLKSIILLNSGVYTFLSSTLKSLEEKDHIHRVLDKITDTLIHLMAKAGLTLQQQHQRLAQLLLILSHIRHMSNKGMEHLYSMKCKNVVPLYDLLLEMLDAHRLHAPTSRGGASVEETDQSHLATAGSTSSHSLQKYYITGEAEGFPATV
Method in brief: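 Compound effects are measured against 17beta-estradiol stimulation in HEK293 cells with a UAS-controlled beta-lactamase reporter for ER-alpha. Exposure lasts 18 hr at 37C; LiveBLAzer B/G FRET substrate follows for 2 hr at room temperature.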

[2] = qHTS assay to identify small molecule antagonists of the estrogen receptor alpha (ER-alpha) signaling pathway - cell viability counter screen (AID 743074; calls by dose curve;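 further: HEK293 cells carrying ER-alpha-UAS-bla reporter stimulated with 17beta-estradiol; nearly all actives have a fitted effect of over 45% in size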; further: potency means the concentration at half of the fitted maximal effect)
[3] = qHTS assay to identify small molecule antagonists of the estrogen receptor alpha (ER-alpha) signaling pathway using the BG1 cell line (AID 743080; calls by dose curve;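 further: BG1 cells stimulated with 17beta-estradiol alongside compound; on the % scale 0 is the no-effect control and ±100 the full control effect; nearly all actives have a fitted effect of over 25% in size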); conditions: BG1Luc4E2 ERE-luciferase antagonist mode, luminescence; activity change, negative = inhibition: at 70.3 µM (top of the series) unless noted
Method in brief: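 BG1Luc4E2, endogenous ER-alpha, 4xERE-luc; 5 d charcoal-stripped FBS, phenol red free; 24 h plating; cpd + 17beta-estradiol 21.5 h, 37 C/5% CO2; CellTiter-Fluor viability 30 min, then ONE-Glo luciferase 30 min RT.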

[4] = qHTS assay to identify aromatase inhibitors - cell viability counter screen (AID 743084); conditions: MCF-7 aro ERE viability, CellTiter-Fluor, 24 h; activity change, negative = cytotoxicity: at 70.3 µM (top of the series) unless noted;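 further: cells stimulated with testosterone during compound exposure; nearly all actives have a fitted effect of over 55% in size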; further: potency means the concentration at half of the fitted maximal effect
[5] = target: Aryl hydrocarbon receptor (Homo sapiens) (UniProt P35869); assay: qHTS assay to identify small molecule that activate the aryl hydrocarbon receptor (AhR) signaling pathway (AID 743085); further: nearly all actives have a fitted effect of over 15% in size; further: potency means the concentration at half of the fitted maximal effect;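 on activation: HG2L7.5c1 human HepG2 liver cells with stably integrated DRE-driven firefly reporter; on the % scale 0 is the no-effect control and ±100 the full control effect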
Sequence of UniProt P35869 (P35869 whole entry, looked up): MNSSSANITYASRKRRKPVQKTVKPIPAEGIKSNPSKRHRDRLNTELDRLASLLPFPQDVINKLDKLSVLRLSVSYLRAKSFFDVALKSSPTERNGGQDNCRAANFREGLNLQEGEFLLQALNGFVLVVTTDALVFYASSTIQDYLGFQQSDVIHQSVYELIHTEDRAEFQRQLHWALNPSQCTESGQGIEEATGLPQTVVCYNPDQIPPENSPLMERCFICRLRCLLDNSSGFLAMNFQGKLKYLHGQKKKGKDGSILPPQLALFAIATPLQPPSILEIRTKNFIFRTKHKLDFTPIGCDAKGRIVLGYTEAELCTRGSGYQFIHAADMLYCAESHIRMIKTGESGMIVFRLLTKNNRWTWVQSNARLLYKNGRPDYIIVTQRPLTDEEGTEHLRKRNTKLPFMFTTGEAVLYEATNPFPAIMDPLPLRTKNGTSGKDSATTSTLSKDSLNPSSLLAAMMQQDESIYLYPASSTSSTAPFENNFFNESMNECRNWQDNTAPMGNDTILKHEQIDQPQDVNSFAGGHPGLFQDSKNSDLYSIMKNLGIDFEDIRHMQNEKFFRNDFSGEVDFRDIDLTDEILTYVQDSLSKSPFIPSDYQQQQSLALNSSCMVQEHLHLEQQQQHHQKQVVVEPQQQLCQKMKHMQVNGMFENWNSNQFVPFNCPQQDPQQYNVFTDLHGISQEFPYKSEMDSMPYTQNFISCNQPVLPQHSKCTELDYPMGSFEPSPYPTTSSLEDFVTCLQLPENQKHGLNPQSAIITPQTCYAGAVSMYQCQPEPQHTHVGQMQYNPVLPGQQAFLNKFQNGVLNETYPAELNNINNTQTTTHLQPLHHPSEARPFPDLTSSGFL
Method in brief: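 Compounds were tested in HepG2 hepatocellular carcinoma cells harbouring a stably integrated luciferase gene under control of 20 DREs. Increased reporter signal after 24 h treatment at 37C was taken as AhR activation.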

[6] = Human pregnane X receptor (PXR) small molecule agonists, qHTS cell viability counter screen (AID 1346977); further: nearly all actives have a fitted effect of over 50% in size; further: potency means the concentration at half of the fitted maximal effect
Method in brief: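 Cytotoxicity counter screen run in the same wells as the PXR luciferase assay, using PXR-Luc HepG2 cells in charcoal-stripped serum medium. Viability: CellTiter-Fluor fluorescence after 24hr compound treatment.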

[7] = target: Nuclear receptor subfamily 1 group I member 2 (Homo sapiens) (UniProt O75469); assay: Human pregnane X receptor (PXR) small molecule agonists, qHTS assay (AID 1346982); further: potency means the concentration at half of the fitted maximal effect; nearly all actives have a fitted effect of over 35% in size
Sequence of UniProt O75469 (O75469 whole entry, looked up): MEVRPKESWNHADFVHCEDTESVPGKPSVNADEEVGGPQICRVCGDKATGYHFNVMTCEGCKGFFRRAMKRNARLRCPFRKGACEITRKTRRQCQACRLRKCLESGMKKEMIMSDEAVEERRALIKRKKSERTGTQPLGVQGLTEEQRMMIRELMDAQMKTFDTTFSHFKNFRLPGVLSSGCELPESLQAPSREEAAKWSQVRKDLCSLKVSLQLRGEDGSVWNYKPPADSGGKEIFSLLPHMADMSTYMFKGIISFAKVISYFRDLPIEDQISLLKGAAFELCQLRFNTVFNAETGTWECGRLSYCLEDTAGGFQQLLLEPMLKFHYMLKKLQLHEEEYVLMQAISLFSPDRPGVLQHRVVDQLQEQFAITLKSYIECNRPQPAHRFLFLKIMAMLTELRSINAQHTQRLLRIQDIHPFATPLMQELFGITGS
Method in brief: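 PXR-Luc HepG2 reporter cells (CYP3A4-driven luciferase) in 5% charcoal-stripped FBS medium, plated 5 h before compound addition, then treated 24 h at 37C. Luciferase read by ONE-Glo luminescence after 30 min at room temperature.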

[8] = qHTS assay to identify small molecule agonists of the farnesoid-X-receptor (FXR) signaling pathway - cell viability counter screen (AID 743218); conditions: FXR-bla HEK293T viability, CellTiter-Glo luminescence, 16 h; viability change, negative = cytotoxic: at 62.6 µM (top of the series) unless noted; further: nearly all actives have a fitted effect of over 45% in size; further: potency means the concentration at half of the fitted maximal effect
Method in brief: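 FXR-UAS-bla HEK 293T cells exposed to compounds for 16 h at 37C. Cytotoxicity read in the same wells by CellTiter-Glo luminescence after 30 min at room temperature, following the beta-lactamase FRET read.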

[9] = qHTS assay to identify small molecule antagonists of the vitamin D receptor (VDR) signaling pathway - cell viability counter screen (AID 743225); conditions: VDR-bla HEK293T viability, CellTiter-Glo luminescence, 16 h; viability change, negative = cytotoxic: at 61 µM (top of the series) unless noted; further: on the % scale 0 is the no-effect control and ±100 the full control effect; nearly all actives have a fitted effect of over 50% in size
Method in brief: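 HEK293T VDR-bla; cpd + 1a,25-(OH)2D3 3 nM final, 16 h 37C/5% CO2; B/G FRET substrate 2 h RT; then CellTiter-Glo 30 min RT, luminescence.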

[10] = target: Thyrotropin receptor (Homo sapiens) (UniProt P16473); assay: qHTS assay to identify small molecule agonists of the thyroid stimulating hormone receptor (TSHR) signaling pathway (AID 1224843; calls by dose curve; further: on the % scale 0 is the no-effect control and ±100 the full control effect; nearly all actives have a fitted effect of over 45% in size); conditions: TSHR-HEK293 cells, cAMP HTRF, agonist mode, 30 min; activation: at 92.4 µM (top of the series) unless noted
Sequence of UniProt P16473 (P16473 whole entry, looked up): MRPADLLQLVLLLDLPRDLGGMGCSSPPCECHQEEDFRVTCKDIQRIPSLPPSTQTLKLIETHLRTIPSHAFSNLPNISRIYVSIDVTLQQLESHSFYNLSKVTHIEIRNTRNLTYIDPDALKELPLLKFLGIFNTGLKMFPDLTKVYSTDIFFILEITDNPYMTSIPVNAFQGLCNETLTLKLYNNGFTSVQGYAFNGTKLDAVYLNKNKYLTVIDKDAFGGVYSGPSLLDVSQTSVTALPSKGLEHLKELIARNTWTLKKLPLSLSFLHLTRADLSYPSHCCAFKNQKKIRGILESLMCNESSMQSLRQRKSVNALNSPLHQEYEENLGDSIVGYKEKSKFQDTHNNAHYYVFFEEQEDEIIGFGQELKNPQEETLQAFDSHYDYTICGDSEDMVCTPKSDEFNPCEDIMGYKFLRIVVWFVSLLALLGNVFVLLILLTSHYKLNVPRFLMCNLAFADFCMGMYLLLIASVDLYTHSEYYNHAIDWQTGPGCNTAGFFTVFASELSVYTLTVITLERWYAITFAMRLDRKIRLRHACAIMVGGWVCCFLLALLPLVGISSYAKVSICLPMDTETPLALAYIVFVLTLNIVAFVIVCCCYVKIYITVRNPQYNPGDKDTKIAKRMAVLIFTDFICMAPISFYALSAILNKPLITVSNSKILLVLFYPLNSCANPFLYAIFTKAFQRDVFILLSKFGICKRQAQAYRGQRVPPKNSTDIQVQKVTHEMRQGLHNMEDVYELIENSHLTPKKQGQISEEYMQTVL
Method in brief: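 HEK293 cells stably bearing the thyrotropin receptor were plated at 800 cells/well and challenged with compound (30 min, RT). Accumulated cAMP was quantified via cAMP-d2 competing for cryptate-tagged antibody.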

[11] = target: Progesterone receptor (Homo sapiens) (UniProt P06401); assay: qHTS assay to identify small molecule agonists of the progesterone receptor (PR) signaling pathway (AID 1346784; calls by dose curve; further: nearly all actives have a fitted effect of over 30% in size; further: potency means the concentration at half of the fitted maximal effect; on activation: on the % scale 0 is the no-effect control and ±100 the full control effect); conditions: PR-UAS-bla HEK293T, beta-lactamase FRET ratio, 16 h; activation: at 92.4 µM (top of the series) unless noted
Sequence of UniProt P06401 (P06401 whole entry, looked up): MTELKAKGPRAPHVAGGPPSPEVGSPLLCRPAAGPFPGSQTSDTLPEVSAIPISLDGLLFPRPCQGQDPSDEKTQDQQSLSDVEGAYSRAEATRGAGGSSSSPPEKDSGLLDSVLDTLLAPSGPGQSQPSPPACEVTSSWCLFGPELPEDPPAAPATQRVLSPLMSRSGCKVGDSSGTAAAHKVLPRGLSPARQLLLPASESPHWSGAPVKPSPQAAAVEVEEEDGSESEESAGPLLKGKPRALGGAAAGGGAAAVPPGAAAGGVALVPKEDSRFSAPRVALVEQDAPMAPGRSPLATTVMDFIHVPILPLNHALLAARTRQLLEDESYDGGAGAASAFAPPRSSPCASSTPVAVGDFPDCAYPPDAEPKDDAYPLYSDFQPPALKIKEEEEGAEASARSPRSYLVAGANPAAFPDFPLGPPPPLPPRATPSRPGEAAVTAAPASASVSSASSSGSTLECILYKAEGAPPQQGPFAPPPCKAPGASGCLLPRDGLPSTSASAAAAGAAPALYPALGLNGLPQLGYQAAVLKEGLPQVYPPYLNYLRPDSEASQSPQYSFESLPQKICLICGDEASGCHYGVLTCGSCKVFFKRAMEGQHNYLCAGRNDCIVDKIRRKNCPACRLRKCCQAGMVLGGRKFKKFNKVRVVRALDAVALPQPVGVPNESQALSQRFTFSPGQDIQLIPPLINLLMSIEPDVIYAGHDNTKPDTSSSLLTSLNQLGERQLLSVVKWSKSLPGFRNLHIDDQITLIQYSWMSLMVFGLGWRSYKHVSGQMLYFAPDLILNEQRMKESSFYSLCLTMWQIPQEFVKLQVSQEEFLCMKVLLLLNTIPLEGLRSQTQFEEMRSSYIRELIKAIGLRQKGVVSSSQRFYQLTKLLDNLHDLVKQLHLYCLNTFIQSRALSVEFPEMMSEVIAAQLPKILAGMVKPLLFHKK
Method in brief: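 Cells (PR-UAS-bla HEK 293T, GripTite) were plated in assay medium containing 2% charcoal-stripped FBS and incubated 6 hr. Test compounds in DMSO were added for 16 hr at 37C. FRET substrate was then loaded for 2 hr at room temperature before fluorescence reading.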

[12] = qHTS assay to identify small molecule antagonists of the peroxisome proliferator-activated receptor delta (PPARd) signaling pathway - cell viability counter screen (AID 743213); conditions: PPARd-bla HEK293H viability, CellTiter-Glo luminescence, 17 h; viability change, negative = cytotoxic: at 62 µM (top of the series) unless noted; further: nearly all actives have a fitted effect of over 50% in size; further: potency means the concentration at half of the fitted maximal effect
Method in brief: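 Luminescence from CellTiter-Glo, added after the bla read and incubated 30 min at room temperature, gives viability of HEK293H PPARd-bla cells exposed to compounds for 17 h at 37 C with 300 nM L165041.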

[13] = qHTS assay for identifying genotoxic compounds that show differential cytotoxicity against isogenic chicken DT40 cell lines with known DNA damage response pathways - Rad54/Ku70 mutant cell line (AID 743015); conditions: DT40 Rad54/Ku70 mutant viability, CellTiter-Glo, 40 h; activity change, negative = cytotoxicity: at 66.8 µM (top of the series) unless noted; further: nearly all actives have a fitted effect of over 60% in size; further: potency means the concentration at half of the fitted maximal effect
[14] = target: Peroxisome proliferator-activated receptor delta (Homo sapiens) (UniProt Q03181); assay: qHTS assay to identify small molecule antagonists of the peroxisome proliferator-activated receptor delta (PPARd) signaling pathway (AID 743215; active means well fitted inhibition curve with a large enough effect in the signal ratio in the repeat runs, not every such curve was filed as active; inconclusive means weak or mixed curves, or effect the other way; inactive means no such curve, though single readings can be large or run the other way; the % refers to the signal ratio;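 further: cells stimulated with agonist L165041 at 300 nM final during compound exposure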; further: potency means the concentration at half of the fitted maximal effect); conditions: HEK293H PPARd-UAS-bla, beta-lactamase FRET ratio, antagonist, 17 h; ratio activity, negative = inhibition: at 62 µM (top of the series) unless noted
Sequence of UniProt Q03181 (Q03181 whole entry, looked up): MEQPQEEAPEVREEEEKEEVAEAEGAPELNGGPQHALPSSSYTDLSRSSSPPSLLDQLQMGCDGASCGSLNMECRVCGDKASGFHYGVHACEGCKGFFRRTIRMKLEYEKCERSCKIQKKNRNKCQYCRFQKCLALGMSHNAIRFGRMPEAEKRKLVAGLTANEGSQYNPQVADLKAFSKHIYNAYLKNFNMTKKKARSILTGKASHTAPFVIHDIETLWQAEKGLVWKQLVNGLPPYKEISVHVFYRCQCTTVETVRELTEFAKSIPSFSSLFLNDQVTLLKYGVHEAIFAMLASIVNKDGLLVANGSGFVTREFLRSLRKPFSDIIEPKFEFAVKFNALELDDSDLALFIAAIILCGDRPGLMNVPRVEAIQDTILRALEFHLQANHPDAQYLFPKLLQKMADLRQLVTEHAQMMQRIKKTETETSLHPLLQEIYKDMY
Method in brief: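 PPARd-bla HEK293H cells (UAS-bla reporter) preincubated 5 h, then given compound plus 300 nM final L165041 agonist for 17 h at 37 C. Beta-lactamase activity read by LiveBLAzer B/G FRET substrate fluorescence after 2 h at room temperature.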

[15] = qHTS RealTime-Glo MT Cell Viability Assay in HEK293 cells - 24 hour (AID 1224886); further: top concentration of the series differs between compounds; on the % scale 0 is the no-effect control and ±100 the full control effect; nearly all actives have a fitted effect of over 50% in size
Method in brief: (§1)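 Cells + reagent dispensed (600 cells/well, HEK293) → 5 h at 37 C/5% CO2 → 23 nL compound in DMSO pinned → 40 h at 37 C → luminescence read at 0, 8, 16, 24, 32, 40 h.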

[16] = qHTS assay for small molecule activators of the heat shock response signaling pathway (AID 743210; active means well fitted activation curve with a large enough effect in the signal ratio in the repeat runs, with a control signal flat, not every such curve was filed as active; inconclusive means weak or mixed curves; the % refers to the signal ratio; further: potency means the concentration at half of the fitted maximal effect); conditions: HeLa HSE-bla reporter, beta-lactamase ratio, 5 h; activation: at 62.6 µM (top of the series) unless noted
Method in brief: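 In HSE-bla HeLa cells, 5 h compound incubation (37 C) precedes addition of LiveBLAzer B/G substrate; after 2.5 h at room temperature, fluorescence intensity indicates reporter induction.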

[17] = qHTS assay to identify small molecule agonists of the estrogen receptor beta (ER-beta) signaling pathway - cell viability counter screen (AID 1259380); further: nearly all actives have a fitted effect of over 30% in size; further: potency means the concentration at half of the fitted maximal effect
Method in brief: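 ER-beta-UAS-bla HEK293T cells in medium with 2% charcoal-stripped FBS, pre-incubated 6 hr, then treated 16 hr at 37C. Cytotoxicity read in the same wells by CellTiter-Glo luminescence after 30 min at room temperature.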

[18] = qHTS RealTime-Glo MT Cell Viability Assay in HEK293 cells - 32 hour (AID 1224868)
Method in brief: as §1

[19] = target: Estrogen receptor beta (Homo sapiens) (UniProt Q92731); assay: qHTS assay to identify small molecule agonists of the estrogen receptor beta (ER-beta) signaling pathway (AID 1259377; active means well fitted activation curve with a large enough effect in the signal ratio in the repeat runs, not every such curve was filed as active; inconclusive means weak or mixed curves, or effect the other way; the % refers to the signal ratio; further: on the % scale 0 is the no-effect control and ±100 the full control effect); conditions: ER-beta-UAS-bla HEK293T, beta-lactamase FRET ratio, 16 h; activation: at 92.4 µM (top of the series) unless noted
Method in brief: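 Agonist mode cell assay in GripTite HEK293T cells expressing an ER-beta fusion that drives beta-lactamase from an Upstream Activator Sequence; 16 hr compound exposure at 37C, then 2 h LiveBLAzer B/G FRET substrate at room temperature, fluorescence read-out.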

[20] = target: Luciferin 4-monooxygenase (Photinus pyralis) (UniProt P08659); assay: qHTS assay to identify small molecule inhibitors of firefly luciferase (AID 1224835); further: nearly all actives have a fitted effect of over 25% in size; further: potency means the concentration at half of the fitted maximal effect
Sequence of UniProt P08659 (P08659 whole entry, looked up): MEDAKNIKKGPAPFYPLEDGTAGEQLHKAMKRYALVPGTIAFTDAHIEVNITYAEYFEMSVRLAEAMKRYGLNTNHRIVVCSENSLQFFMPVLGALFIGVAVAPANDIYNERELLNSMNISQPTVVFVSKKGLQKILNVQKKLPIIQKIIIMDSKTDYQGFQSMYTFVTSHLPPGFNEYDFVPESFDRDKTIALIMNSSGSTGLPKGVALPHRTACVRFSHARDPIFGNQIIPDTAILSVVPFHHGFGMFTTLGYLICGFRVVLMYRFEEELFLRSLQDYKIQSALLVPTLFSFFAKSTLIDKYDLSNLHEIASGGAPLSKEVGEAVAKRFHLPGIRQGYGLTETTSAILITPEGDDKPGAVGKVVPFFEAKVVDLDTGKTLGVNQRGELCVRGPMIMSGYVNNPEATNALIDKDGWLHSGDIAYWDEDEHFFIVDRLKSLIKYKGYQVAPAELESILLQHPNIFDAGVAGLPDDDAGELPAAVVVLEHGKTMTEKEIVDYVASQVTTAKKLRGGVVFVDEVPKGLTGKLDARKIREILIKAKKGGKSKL
Method in brief: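 Inhibition of purified Photinus luciferase is measured by luminescence. Substrate levels (D-luciferin, ATP) sit at their KM values. Each compound is tested in a concentration series.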
Tags describe the fitted curve by direction and shape or compound fluorescence and quenching.

CCN(CC)CCOCCOC(=O)C1(c2ccccc2)CCCC1
Potency [1]: inconclusive: 26.8 µM [inhibitor, single point] | Potency [2]: inconclusive: 26.8 µM [cytotoxic, single point] | activity change, negative = inhibition [3]: inconclusive: -7.35% | Potency [4]: inconclusive: 29.8 µM [cytotoxic] | Potency [5]: inactive | Potency [6]: active: 26.6 µM | Potency [7]: inconclusive: 13.3 µM [activator, partial curve]

COc1cc(-c2ccc(=O)[nH]n2)ccc1OC(F)F
activity, negative = inhibition [1]: inconclusive: 25.9% | Potency [5]: inconclusive: 4.73 µM [activator, full curve, poor fit] | Potency [8]: inconclusive: 0.298 µM [cytotoxic, single point] | Potency [9]: inactive | activation [10]: inconclusive: 54.5% [at 42.5 µM] | Potency [11]: inactive | Potency [7]: active: 4.73 µM

CC(=O)OCC(=O)Nc1cc(C#N)cc(NC(=O)COC(C)=O)c1Cl
Potency [12]: inconclusive: 0.0075 µM [cytotoxic, full curve, poor fit] | Potency [10]: inactive

CCOC(=O)n1ccn(C)c1=S
Potency [13]: inconclusive: 54.5 µM [cytotoxic, partial curve, poor fit] | activity change, negative = cytotoxicity [13]: inconclusive: -101% [at 30.7 µM] | Potency [4]: inconclusive: 0.0507 µM [rising, full curve, poor fit] | Potency [12]: inactive

C[C@]12CCC(=O)C=C1CC[C@@H]1[C@@H]2[C@@H](O)C[C@@]2(C)[C@H]1CC[C@]2(O)C(=O)CO
ratio activity, negative = inhibition [14]: inconclusive: 14.2% [at 80.4 µM] | Potency [11]: active: 30.9 µM | Potency [6]: inactive

c1ccc2c(c1)Cc1ccccc1-2
Potency [15]: inactive | Potency [11]: inconclusive: 0.0039 µM [falling, full curve, poor fit]

CCN(CC)CC
Potency [14]: inactive

CCCCCCCC/C=C\CCCCCCCC(=O)OC(CO)CO
Potency [13]: inconclusive: 68.6 µM [cytotoxic, single point] | Potency [16]: inconclusive: 49 µM | Potency [17]: inconclusive: 68.6 µM [cytotoxic, single point] | Potency [6]: inactive

COc1ccc(NC(C)=O)cc1N
Potency [12]: inactive | Potency [14]: inactive | Potency [8]: inconclusive: 0.692 µM [rising, full curve, poor fit] | Potency [10]: inactive | Potency [18]: inactive | Potency [15]: inactive | activation [19]: inconclusive: 17.5% | Potency [11]: inconclusive: 68.6 µM [rising, partial curve, poor fit] | Potency [7]: inconclusive: 60.9 µM [activator, partial curve, poor fit] and inconclusive: 54.5 µM [activator, partial curve, poor fit]

CC(C)NCC(O)c1ccc2ccccc2c1 (configuration not stated)
Potency [13]: inconclusive: 29.8 µM [cytotoxic, single point] | Potency [2]: inactive | Potency [4]: inactive | Potency [6]: inconclusive: 29.8 µM [cytotoxic, partial curve, poor fit]

FC(F)(F)c1ccc(Cl)cc1Cl
Potency [2]: inactive | Potency [20]: inactive

CCn1cc(C(=O)O)c(=O)c2cnc(N3CCNCC3)nc21
Potency [9]: inactive | Potency [20]: inactive

CCNC(=O)/C=C/c1cccc(Br)c1
Potency [5]: inconclusive: 7.5 µM [activator, partial curve] | Potency [12]: inactive | Potency [20]: inconclusive: 34.7 µM [inhibitor, single point]

NNC(=O)CCCCC(=O)NN
Potency [1]: inactive | Potency [2]: inactive | Potency [3]: inactive | Potency [5]: inconclusive: 24.3 µM [activator, full curve, poor fit] | ratio activity, negative = inhibition [14]: inconclusive: 11.8%

N[C@@H]1CONC1=O
Potency [13]: inactive | Potency [2]: inconclusive: 0.0076 µM [rising, full curve, poor fit] | Potency [14]: inconclusive: 33.5 µM [activator, single point]

C=CC(OCC)OCC
Potency [13]: inactive | Potency [4]: inconclusive: 34 µM [cytotoxic, partial curve, poor fit] | Potency [17]: inactive

CC(CC=O)CC(C)(C)C (configuration not stated)
Potency [1]: inactive | Potency [2]: inconclusive: 61.7 µM [rising, partial curve, poor fit] | Potency [16]: inactive | Potency [8]: inactive

CCCCC(CC)CNC(=O)CC(C)OC(=O)CCC(=O)O (configuration not stated)
Potency [14]: inactive | Potency [20]: inconclusive: 34.7 µM [inhibitor, partial curve]

Nc1ccc2cc(S(=O)(=O)O)cc(O)c2c1
Potency [13]: inactive | Potency [4]: inactive | Potency [5]: active: 27.1 µM | Potency [20]: inconclusive: 31.5 µM [inhibitor, partial curve] | activation [10]: inconclusive: -17.2% | Potency [17]: inactive

CC1(N)CCC(C(C)(C)N)CC1 (configuration not stated)
Potency [14]: inactive | Potency [11]: inconclusive: 77 µM [rising, single point]

O=S(=O)(O)SSS(=O)(=O)O
Potency [20]: inconclusive: 35.6 µM [inhibitor, partial curve]

CC(=O)Nc1ccc(OCC(O)CNC(C)C)cc1 (configuration not stated)
Potency [2]: inactive | Potency [16]: inactive | Potency [10]: inactive

CC(=O)Nc1ccc(S(=O)(=O)Nc2ccc([N+](=O)[O-])cc2)cc1
Potency [16]: inconclusive: 33.5 µM [activator, single point] | Potency [9]: inactive | Potency [6]: inconclusive: 29.8 µM [cytotoxic, partial curve, poor fit]
